# PubChem BioAssay AID1671193 (National Center for Advancing Translational Sciences (NCATS), 2021)
# Hit rate of the full screen: of about 150,000 compounds, about 180 (0.12%) were called active. Inconclusive means that the source gave no clear call. Such entries were picked first, then a sample of the others. The call rests on the fitted dose curve; in most records, active means well fitted cell-killing curve with a large enough effect; inconclusive means small, poorly fitted or top-dose-only effect, or effect the other way; inactive means flat fitted curve, though single readings scatter. Where the call is inconclusive, the potency comes from a doubtful curve fit.
# Test: GF-AFC viability counterscreen for inhibitors of alpha-synuclein gene (SNCA) expression; further: nearly all actives have a fitted effect of over 30% in size;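 on activity change, negative = cytotoxicity: 0% = DMSO-treated cells and -100% = medium-only wells without cells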
# Settings: HEK-293-SNCA-luc viability, GF-AFC fluorescence, 24 h; activity change, negative = cytotoxicity: at 57.1 µM (top of the series) unless noted
# In short: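 HEK-293-SNCA-luc cells (1500/well) plated 24 h, then exposed 24 h to a dilution series; GF-AFC added 30 min at 37C, fluorescence 405/540 nm; normalised to medium-only and DMSO wells, Hill fit.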
# Potency means the concentration at half of the fitted maximal effect; tags describe the fitted curve by direction and shape.
Structure (SMILES),Potency,"activity change, negative = cytotoxicity"
CCOc1ccccc1CN1CCC2(CCN(CCC(C)C)CC2)Oc2ccccc21,"inconclusive: 25.1 µM [cytotoxic, partial curve, poor fit]",–
CCCCCn1c(NCc2ccc(OC)cc2)nc2ccccc21,"inconclusive: 25.1 µM [cytotoxic, single point]",–
CC(C)C(=O)N1Cc2ccccc2CC2(CCCCN2Cc2ccccn2)C1 (stereo not drawn),–,inactive: -2.65%
O=C1NCCCCCCN(C(=O)COc2ccccc2)[C@H]2CCCC[C@@H]12,"inconclusive: 3.55 µM [cytotoxic, single point]",–
Cc1ccc(NC(=O)N2C[C@@H](Oc3ccccc3)C[C@H]2C(=O)N2CCOCC2)cc1C,"inconclusive: 2.82 µM [cytotoxic, full curve, poor fit]",–
O=C(CCCn1c2ccccc2c(=O)c2ccccc21)Nc1cccc(Cl)c1,"inconclusive: 39.8 µM [rising, single point]",–
Cc1nc2c(c(-c3ccc(O)cc3)n1)CN(Cc1ccc(OC(F)(F)F)cc1)CC2,–,inactive: 4.51%
CCN(CC)CCOc1ccc(Nc2ncc3cc(-c4c(Cl)cccc4Cl)c(=O)n(C)c3n2)cc1,"inconclusive: 3.41 µM [cytotoxic, full curve]",–
COC(=O)c1cccc(NC(=S)N[C@H]2CO[C@H]3[C@@H]2OC[C@@H]3n2cc(CC3CCCCC3)nn2)c1,"inconclusive: 7.94 µM [cytotoxic, partial curve, poor fit]",–
CCn1c(-c2nonc2N)nc2c(C#CC(C)(C)O)ncc(OC[C@H]3CCCNC3)c21,"inconclusive: 21.5 µM [cytotoxic, partial curve]",–
COc1ccc(C(=O)Nc2cc(C3CC3)nn2-c2ccccc2)cc1,"inconclusive: 17.8 µM [cytotoxic, partial curve, poor fit]",–
COc1ccc(CC(=O)Nc2c(C(=O)N3CCN(c4ccccc4)CC3)oc3ccccc23)cc1OC,"inconclusive: 25.1 µM [cytotoxic, single point]",–
Cc1ccc(C)c(N2CCN(c3ncnc4c3nc3n4CCCC3)CC2)c1,–,inactive: -18.9%
O=C1Cc2c(-c3cccc(C(F)(F)F)c3)n[nH]c2CN1CCc1ccncc1,–,inactive: -13.1% [at 87.6 µM]
COc1ccc(CN2C(=O)[C@@H]3C[C@@H](O)CN3C3(CN(C4CCC4)C3)C2=O)cc1,–,inactive: 3.47% [at 87.6 µM]
Cc1ccsc1CN1CCOc2ccc(C(=O)NCc3ccccc3F)cc2C1,"inconclusive: 5.62 µM [cytotoxic, partial curve, poor fit]",–
CS(=O)(=O)N1CCc2ccc(C(=O)Nc3ccc(Oc4ccccc4)cc3)cc21,"inconclusive: 22.4 µM [cytotoxic, partial curve, poor fit]",–
CCCN1CCC2(CCN(C(=O)c3cccc(Cl)c3)CC2)Oc2ccccc21,–,inactive: -20.3%
COc1cccc(-c2nc3cnccn3c2NCCC(=O)NC2CCCCCC2)c1,"inconclusive: 31.6 µM [rising, partial curve, poor fit]",–
Clc1cc(Cl)cc(NC2CNC2)c1,"inconclusive: 39.8 µM [cytotoxic, single point]",–
COCCCN1C(=O)CC[C@H]2CN(C(=O)Cn3cccnc3=O)CC[C@H]21,"inconclusive: 3.16 µM [rising, full curve, poor fit]",–

Structure (SMILES),Potency,"activity change, negative = cytotoxicity"
CCCNC(=O)[C@H]1O[C@H]1C(=O)N[C@H](C(=O)N1CCC[C@@H]1C(=O)OC)C(C)CC (stereo partly drawn),active: 21.5 µM,–
Cc1ccc(C(=O)c2cn(Cc3cccc(Cl)c3)c3nc(C)ccc3c2=O)cc1,"inconclusive: 31.6 µM [cytotoxic, single point]",–
O=C(NCCc1ccccc1)c1ccc2c(c1)N(Cc1ccc(Cl)cc1)C(=O)CS2,"inconclusive: 28.2 µM [cytotoxic, partial curve, poor fit]",–
CC(=NNC(=S)N1CCC1)c1ccccn1,"inconclusive: 4.82 µM [cytotoxic, full curve]",–
COc1cccc(-c2cn3cc(C(=O)NCCc4ccc(Cl)cc4)nc3s2)c1,"inconclusive: 2.82 µM [cytotoxic, full curve, poor fit]",–
CC(C)N1C(=O)C2(CCCC2)C1C(=O)Nc1ccncc1 (stereo not drawn),"inconclusive: 20 µM [cytotoxic, single point]",–
COc1ccc(CNC(=O)c2cc3c(s2)CCN(C(=O)c2ccccc2)C3)cc1OC,"inconclusive: 5.01 µM [cytotoxic, full curve, poor fit]",–
Cc1cc(C)nc(-n2nc(C)c3c2N(Cc2ccccc2F)C(=O)CC3c2ccc(Cl)cc2)n1 (stereo not drawn),"inconclusive: 28.2 µM [cytotoxic, partial curve, poor fit]",–
CC1(CNc2ccccc2)COc2ccc(C(=O)NCCOc3ccccc3)cc2N1 (stereo not drawn),–,inactive: -26.5% [at 87.6 µM]
O=C(NCCc1ccc(Cl)cc1)C1CCc2nnc(-c3ccc(Cl)nc3)n21 (stereo not drawn),–,inactive: -0.934%
Cc1cn(-c2cc(NC(=O)c3ccc(C)c(Nc4nccc(-c5cccnc5)n4)c3)cc(C(F)(F)F)c2)cn1,"inconclusive: 29.9 µM [cytotoxic, single point]",–
Cc1ncc(CO)c(CN2CCC3(CC2)Cc2ccccc2CNC3=O)c1O,–,inactive: -4.33%
CCC1CN(C(=O)N2CCC(C(=O)NCCc3ccc(OC)cc3OC)CC2)c2cc(C)ccc2O1 (stereo not drawn),"inconclusive: 28.2 µM [cytotoxic, single point]",–
Cc1noc(-c2cn(C3CCCN(C(=O)c4cccc5[nH]ccc45)C3)nn2)n1 (stereo not drawn),–,inactive: -2.27%
COc1cc(-c2nc3sccn3c2Nc2c(C)cccc2C)ccc1O,"inconclusive: 7.94 µM [cytotoxic, single point]",–
COc1ccccc1-c1[nH]nc2ncc(-c3ccccc3F)nc12,–,inactive: 29.4% [at 87.6 µM]
CC(=O)N(C1CC1)C1CCOC2(CCN(C(=O)NCCc3ccccc3)CC2)C1 (stereo not drawn),–,inactive: -4.07%
O=C(Nc1cccc(F)c1)N1Cc2[nH]cnc2C[C@H]1c1nc(-c2ccc(Cl)cc2)no1,"inconclusive: 12.6 µM [cytotoxic, partial curve, poor fit]",–
CCOC(=O)C1CCCN(C(=O)c2ccc3c(c2)sc2nc(-c4cccc(OC)c4)cn23)C1 (stereo not drawn),–,inactive: 0.847%
COc1ccc(CC(=O)N2CCC(Cc3nc(-c4ccccc4)no3)CC2)cc1,"inconclusive: 12.6 µM [cytotoxic, partial curve, poor fit]",–
O=C(Cn1c(SCc2ccc(F)cc2)nc2cccnc21)Nc1ccccc1F,"inconclusive: 22.4 µM [cytotoxic, partial curve, poor fit]",–

Structure (SMILES),Potency,"activity change, negative = cytotoxicity"
CC1(C(=O)NCC2CC2)CCc2cnc(Nc3ccccc3)nc21 (stereo not drawn),–,inactive: -24.4% [at 87.6 µM]
COc1ccc(C(=O)N[C@H]2CO[C@H]3[C@@H]2OC[C@@H]3Nc2nccc(-c3cccs3)n2)cc1,"inconclusive: 25.1 µM [cytotoxic, partial curve, poor fit]",–
Cc1cc2cc(-c3c(C)noc3C)nc(Nc3cccc(F)c3)c2o1,–,inactive: -18.7% [at 87.6 µM]
CCOc1ccccc1CN1CCC2(CCN([S+](=O)([O-])c3ccc(C)cc3)CC2)Oc2ccccc21,"inconclusive: 25.1 µM [cytotoxic, single point]",–
COc1cccc(N2C(=O)NC(=NC3CCCCC3)C23CCN(C(=O)OCc2ccccc2)C3)c1 (stereo not drawn),"inconclusive: 1.26 µM [rising, full curve, poor fit]",–
Cc1cccc(Cn2c(-c3ccccc3)nc3ccccc32)c1,–,inactive: -1.05%
O=C(CC1N=C2c3ccccc3N=C(SCc3ccc(F)cc3)N2C1=O)NCCc1ccccc1 (stereo not drawn),"inconclusive: 25.1 µM [cytotoxic, single point]",–
Clc1ccccc1CNCC1CCC(CNCc2ccccc2Cl)CC1 (stereo not drawn),"inconclusive: 26.7 µM [cytotoxic, partial curve, poor fit]",–
CO[C@H]1C(=O)N(C2CCN(C(=O)c3ccc4[nH]ccc4c3)CC2)[C@H]1c1ccncc1,"inconclusive: 7.08 µM [cytotoxic, single point]",–
Cc1cc(C)c2nc(C)cc(Nc3cccc(C(=O)O)c3)c2c1,"inconclusive: 31.6 µM [cytotoxic, single point]",–
CCOc1ccccc1NC(=O)NCCn1c(C)cnc1C1CC1,–,inactive: 1.47%
O=C1NC(=NC2CCCC2)C2(CCCN(Cc3cccnc3)C2)N1c1cccnc1 (stereo not drawn),–,inactive: -1.4%
COc1ccc(C(=O)Nc2ccc3c(c2)CN(CCc2ccccc2)C(=O)C(C)O3)cc1OC (stereo not drawn),"inconclusive: 11.2 µM [cytotoxic, partial curve, poor fit]",–
CCCOc1ccc(C2c3c(-c4ccccc4O)n[nH]c3C(=O)N2CCc2ccccc2)cc1OCC (stereo not drawn),"inconclusive: 31.6 µM [cytotoxic, single point]",–
COc1ccc(-c2[nH]nc3ncc(C(=O)NCC(C)C)nc23)c(C)c1,"inconclusive: 22.4 µM [cytotoxic, partial curve, poor fit]",–
COc1ccc(C(=O)c2oc3ccccc3c2NC(=O)c2cc(=O)c3ccc(C)cc3o2)cc1Cl,"inconclusive: 12.6 µM [rising, partial curve, poor fit]",–
COCC(=O)NC[C@@H]1C=C(C)[C@H](Cc2nc3ccc(F)cc3[nH]2)C[C@H]1C(C)C,"inconclusive: 25.1 µM [cytotoxic, partial curve, poor fit]",–
COC(=O)c1c(NC(C)=O)c2c3c(sc2n1Cc1cc(C)ccc1C)CCCC3,"inconclusive: 3.16 µM [rising, partial curve, poor fit]",–
CCCN(C)c1nccnc1OC1CCN(C(=O)c2ccoc2)C1 (stereo not drawn),–,inactive: 7.43%
COc1ccc(-c2ccc3nc(-c4ccccc4Br)oc3c2)c(OC)c1OC,"inconclusive: 0.794 µM [cytotoxic, full curve, poor fit]",–
CCCCSc1nc(N)cc(N2CCCC(OCc3cccnc3)C2)n1 (stereo not drawn),"inconclusive: 1.58 µM [cytotoxic, full curve, poor fit]",–
